± gives the standard deviation of the averaged measurements. Some of the results follow.

Results on 44 sequences are retold here after the supplement of paper PMC11417369.

This assay relates to PfAP2-LT AP2 domain (GST-tagged). Description: gcPBM binding intensity (ln(normalized median fluorescence intensity)); higher = stronger DNA binding. In outline: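 After 1 h on an Agilent 4 × 180k array of primer-extended double-stranded 36-bp intergenic genomic probes and negative controls, bound GST-tagged P. falciparum DNA-binding domains were detected with Alexa488 anti-GST antibody and scanned at 488 nm. The domains had been expressed in E. coli, and binding took place in 1× PBS with 1% milk, 0.2 mg/ml BSA, 0.5% salmon testes DNA and 0.03% Triton X-100. Binding intensity is the highest Masliner-normalised natural-log median intensity across replicate spots of either probe orientation.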
As to “GTGTGCAAAAATTGTTGTACATTATATATAAAAAAA [XGTACX_site3246]”, the “gcPBM binding intensity (ln)” value stood at 9.17 ± 0.31.
Take “TTTCACATATATATGGTGCATATTTTATGTGTAAAT [GTGCAC_site9937]”: the “gcPBM binding intensity (ln)” value amounted to 8.7 ± 0.33.
As to “CTATTATCGGTTCCTACACACAAATATAGATGTCTA [CACACA_site7651]”, the “gcPBM binding intensity (ln)” value was 9 ± 0.4.
Regarding “TATATAATACAAAAGGGTACATTAACATATTATATA [XGTACX_site3196]”, the “gcPBM binding intensity (ln)” value stood at 8.8 ± 0.4.
Turning to “AACAACTATTAATTTACACACATGTATATATTTTAC [CACACA_site3116]”, the “gcPBM binding intensity (ln)” value is 9.28 ± 0.4.
The same measure for “AATAGCTAGCTGTGCACACAAACATATTTTCCAAAT [CACACA_site880]”: 9.35 ± 0.32.
For “ATATATATATAATTTTGTACATAATAGCAATTCTAA [XGTACX_site653]”, the “gcPBM binding intensity (ln)” value amounted to 8.65 ± 0.33.
For the sequence “GTTTTAAACAAAAATTGTACAATATAATCTTCCTAT [XGTACX_site2851]”, the “gcPBM binding intensity (ln)” value was 8.55 ± 0.37.
“GGATGGAGTAGTTAAGCATAATAAATAAAATTATGT [CACACA_negctrl_site578]”: the “gcPBM binding intensity (ln)” value stood at 8.78 ± 0.69.
Regarding “CAAAACCTTTTATGTACACACATATACATCCCACTT [CACACA_site5716]”, the “gcPBM binding intensity (ln)” value was determined as 9.16 ± 0.53.
With “AATATCATCCTTTTTTTTTATAAAATTTAAAATATA [CACACA_negctrl_site844]”, the “gcPBM binding intensity (ln)” value amounted to 8.32 ± 0.45.
With “ACCTCACAAATGAATACACACAAACATATATATTTA [CACACA_site4976]”, the “gcPBM binding intensity (ln)” value stood at 9.11 ± 0.33.
On to “TATTTTATTATACCAAGTACAAAATTTAAATATGAA [XGTACX_site5478]”, for which the “gcPBM binding intensity (ln)” value came to 8.36 ± 0.43.
Regarding “ATTTTATGTTGAAAGTGTACGTATTAATATGTAGAA [XGTACX_site245]”, the “gcPBM binding intensity (ln)” value is 8.7 ± 0.36.
With “TATAAGAGAATATATACACACAAAAATAAATACAGT [CACACA_site5000]”, the “gcPBM binding intensity (ln)” value worked out at 9.47 ± 0.45.
Consider “TCATTTCACAAACACACACACACAATATATTTCCTT [CACACA_site3905]”, for which the “gcPBM binding intensity (ln)” value was 9.77 ± 0.29.
For “CCACAAGCAGCGGAAACATGCATATGTTGAAATAAT [TGCATGCA_site610]”, the “gcPBM binding intensity (ln)” value turned out to be 8.96 ± 0.42.
In the case of “AACAAAAAAAAAAAATGTACATATATATAATATATT [XGTACX_site3829]” it was 8.67 ± 0.52; in that of “GTTAAGAATATGTGTACACATATACATAAATACATA [CACACA_site4254]”, 9.16 ± 0.42; in that of “TATATATATATATATTGTACCCTTTTCAAACTTCTC [XGTACX_site2812]”, 9.39 ± 0.16.
In the case of “TAATAATATTATTAATGTACAAATATATATACATAT [XGTACX_site7348]”, the “gcPBM binding intensity (ln)” value amounted to 8.65 ± 0.36.
As to “TTTTTCTTTTTCTTTTTTTCTTTTTTTTTTTTTTTC [GTGCAC_negctrl_site727]”, the “gcPBM binding intensity (ln)” value amounted to 8.29 ± 0.66.
With “CAGACGCACGTATTTGCACACATTGCCACGTAATTA [CACACA_site3349]”, the “gcPBM binding intensity (ln)” value turned out to be 9.28 ± 0.37.
Take “AACCATTCAACTGATGCATGCATTTAACATATAAAT [TGCATGCA_site961]”: the “gcPBM binding intensity (ln)” value is 8.91 ± 0.38.
“GGATTGATAAGTGGTACACACATATATATTATATAT [CACACA_site2866]”: the “gcPBM binding intensity (ln)” value stood at 9.12 ± 0.49.
The same measure for “AAATATAAAAATAGCACACATATATACCTATATATA [CACACA_site4204]”: 8.99 ± 0.38.
In the case of “GCATTGGGAATATATAGTACATATATATATATATAA [XGTACX_site2967]”, the “gcPBM binding intensity (ln)” value came out at 9.28 ± 0.35.
In the case of “TTAAAAAAAATTTCAAGTACAAAGTAATATATATAT [XGTACX_site5718]”, the “gcPBM binding intensity (ln)” value amounted to 8.6 ± 0.45.
On to “AAAAAAATTGGGAAAAGTACTTGCAGCTAGCTAAAA [XGTACX_site5178]”, for which the “gcPBM binding intensity (ln)” value worked out at 8.66 ± 0.36.
In the case of “AAACAAATATAATATTGTACATATATATATATATAT [XGTACX_site3105]” it was 9.44 ± 0.49.
In the case of “AATGCTATCATTAATGCACACATTTAAAATTAATAT [CACACA_site3548]”, the “gcPBM binding intensity (ln)” value came out at 8.84 ± 0.38.
For the sequence “TTTAAAACCTTACATACACACAAATATATATATATA [CACACA_site677]”, the “gcPBM binding intensity (ln)” value stood at 9.295 ± 0.021.
On to “ATAATAAAAAATACAAGTACACATATTATATATATA [XGTACX_site5355]”, for which the “gcPBM binding intensity (ln)” value is 8.9 ± 0.43.
With “CAAACAATTAAACAAACACACATATACAAGTATTTA [CACACA_site5177]”, the “gcPBM binding intensity (ln)” value came to 8.98 ± 0.4.
As to “TTTAAGTTTTTACTTTGTACGTATTATAATAAAATC [XGTACX_site5683]”, the “gcPBM binding intensity (ln)” value worked out at 8.54 ± 0.52.
Regarding “TGTTCTTTTTATACTACACACTGATAAAAAAACAAA [CACACA_site3001]”, the “gcPBM binding intensity (ln)” value was determined as 8.46 ± 0.35.
In the case of “TATATTTACTTATGAAGTACATATATATATATATAT [XGTACX_site5069]” it was 9.19 ± 0.3; in that of “GCTTGAATAATCAATAGTACACACATATAAATATAT [XGTACX_site5964]”, 9.09 ± 0.45; in that of “TTTATTTTCATATGAACACACATATTTATATTATAA [CACACA_site7165]”, 9.02 ± 0.67.
In the case of “ATACATACATATATATGTACTTATATTTTACACATT [XGTACX_site1688]” it was 9.22 ± 0.3; in that of “TAATAAAAGAAAAAAAGTACAGACATATTGAATTTT [XGTACX_site5044]”, 8.76 ± 0.37.
In the case of “TACAATCTAAGGAGCACACAAAAATGGATAAATATA [CACACA_site933]” it was 8.98 ± 0.49; in that of “TTTTTTTTTTTTTTTTGTACTCATACATACTATCAT [XGTACX_site3650]”, 8.74 ± 0.46.
For the sequence “CAGGCACTAATAAACACACACATATAAATATAAATA [CACACA_site6320]”, the “gcPBM binding intensity (ln)” value is 9.38 ± 0.59.
